The other results are listed elsewhere or left out.

Among the data in article PMC7819943, “Rice protein-binding microarrays: a tool to detect cis-acting elements near promoter regions in rice” are binding signal values, retold here.

The test deals with T1, OsWOX13 (Oryza sativa, UniProt Q5QMM3 1-267).
T1 sequence: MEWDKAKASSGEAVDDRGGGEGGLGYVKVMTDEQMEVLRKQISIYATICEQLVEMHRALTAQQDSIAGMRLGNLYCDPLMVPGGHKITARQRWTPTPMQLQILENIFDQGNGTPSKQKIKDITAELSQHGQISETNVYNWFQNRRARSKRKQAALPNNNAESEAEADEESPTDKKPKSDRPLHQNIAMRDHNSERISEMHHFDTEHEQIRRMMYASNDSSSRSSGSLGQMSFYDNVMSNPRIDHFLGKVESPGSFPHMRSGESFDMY
Put plainly: protein-binding microarray (RPBM); PBS, 2% BSA, 51.3 ng/ul salmon testes DNA, 50 uM zinc acetate, 200 nM TF, 25 C, 1 h; high values mean tight binding. The settings on record: protein: recombinant; tags: N-terminal polyhistidine and DsRed monomer fusion (pET32a); label: CyDye5-dUTP incorporated in the synthesized complementary strand; 3' TTTTT single-stranded linker to array surface; dsDNA, one strand shown. The method, boiled down: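 The binding signal is fluorescence intensity per feature, in arbitrary units, read on an Axon 4000B scanner. Polyhistidine- and DsRed-tagged transcription factors (N-terminal fusions) from E. coli BL21-CodonPlus were purified on Ni–NTA and applied at 200 nM for 1 h at 25 °C to a double-stranded, BSA-blocked custom Agilent array in buffer with 50 µM zinc acetate.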
Regarding “CACCAATCACTGGGCCCGGCCGTACGTATCTCTTGTTCTCCGGAGTCACCTAGTGCAG”, the binding signal is 20900 fluorescence intensity (a.u.).

“ATCAACCTATCCTGATTTAAATCGTAGATTTGATATGAGTCGGAGTCACCTAGTGCAG”: the binding signal is 5570 fluorescence intensity (a.u.).

On to “TATGTTATAATATCATGATTTAAACATAATTAGCGTACTACGGAGTCACCTAGTGCAG”, for which the binding signal was 14000 fluorescence intensity (a.u.).

Regarding “GGAATCTGTAATTTGTTTTCTTATTAGTCTACGTTTAATCCGGAGTCACCTAGTGCAG”, the binding signal is 4790 fluorescence intensity (a.u.).

For “GTTTTGATTAGTTAAGGGACGCCGGATATCTGGTTTTGCACGGAGTCACCTAGTGCAG”, the binding signal is 44000 fluorescence intensity (a.u.).

For the sequence “AGTAATTATTAATTCTTTTCCTATCATTTAATTCATTGTTCGGAGTCACCTAGTGCAG”, the binding signal was 13600 fluorescence intensity (a.u.).

Turning to “GGCCAGTAATTAACCATATTTATCATTTAAACTACTCAGTCGGAGTCACCTAGTGCAG”, the binding signal is 9040 fluorescence intensity (a.u.).

As to “CGTAATAAATTAAAAGGTTGCTTCTGTTACTCAGCCTAGACGGAGTCACCTAGTGCAG”, the binding signal was 12600 fluorescence intensity (a.u.).

In the case of “TCAACTAAACACACCCTAATTACAACTCTCCCAAAGCCCACGGAGTCACCTAGTGCAG”, the binding signal is 5330 fluorescence intensity (a.u.).

As for “CTATATAATTGAACTTACAACTTACATCCTTTAAATATGACGGAGTCACCTAGTGCAG”, the binding signal is 12300 fluorescence intensity (a.u.).

As to “AATTCAGAAATCAAAGATCATGATTGGTACATTTTATTTTCGGAGTCACCTAGTGCAG”, the binding signal was 8900 fluorescence intensity (a.u.).

On to “AATAAATTAGCAGGCGAGATCGGCCGCCATCGCAGATTCACGGAGTCACCTAGTGCAG”, for which the binding signal is 5440 fluorescence intensity (a.u.).

With “GTTTGTGTTCTTGGATTGGGTTGGGTTGGGTTGGTGAGGTCGGAGTCACCTAGTGCAG”, the binding signal was 4350 fluorescence intensity (a.u.).

Regarding “TTTGATTGAGATTGATAATAACCTGCTGTAACTTAGCGAACGGAGTCACCTAGTGCAG”, the binding signal was 61100 fluorescence intensity (a.u.).

On to “GGAGCAAATTTACATGTAAAATTTGGTATTTTCAAATACTCGGAGTCACCTAGTGCAG”, for which the binding signal is 7250 fluorescence intensity (a.u.).

With “TATAAATTTGATATGTTTTGTCAATTAATAGTTTAGTACTCGGAGTCACCTAGTGCAG”, the binding signal is 29300 fluorescence intensity (a.u.).

Turning to “CAAGCAGTTGATTAGAGTATACTTAGAGGATCAATTGCTACGGAGTCACCTAGTGCAG”, the binding signal is 9920 fluorescence intensity (a.u.).

Regarding “ATAATTATCGTAAATCATTCTGTCATTCAGCTATTCTTAGCGGAGTCACCTAGTGCAG”, the binding signal was 17900 fluorescence intensity (a.u.).

“CCACCTCTAATGAAGAGGTGATTGCAACCATTCATCTCTTCGGAGTCACCTAGTGCAG”: the binding signal was 12000 fluorescence intensity (a.u.).

For “CATGGACTAATTAGACTTAAAATATTCATCTCGCGATTTTCGGAGTCACCTAGTGCAG”, the binding signal was 24000 fluorescence intensity (a.u.).

Consider “CAACTTAAATTATACTGTATTCAGAAGGTATAGCTGAGATCGGAGTCACCTAGTGCAG”, for which the binding signal is 5020 fluorescence intensity (a.u.).

“TTTAAAATTTAAAGAGTAAATTTCATAAAACTACAGATACCGGAGTCACCTAGTGCAG”: the binding signal is 4180 fluorescence intensity (a.u.).

For the sequence “CTTAATTGTATGATAATTTCTTCTGATGTTTCATGCTCAACGGAGTCACCTAGTGCAG”, the binding signal is 42300 fluorescence intensity (a.u.).

As to “GTCATCATTAATTCATTGCTGTCATTGTTTGCAAGATATTCGGAGTCACCTAGTGCAG”, the binding signal is 4340 fluorescence intensity (a.u.).

For the sequence “CTGCTGATTTTGCATTCGGTTTTCTGGCGGTAGATGGAAACGGAGTCACCTAGTGCAG”, the binding signal was 5380 fluorescence intensity (a.u.).

For “AGTTAATTACTAATTAACAATAATATACTTTAATTATTGCCGGAGTCACCTAGTGCAG”, the binding signal was 46600 fluorescence intensity (a.u.).

In the case of “TTGTCCATCTGATTTAACATGAAAATCGAGGATCGAATGACGGAGTCACCTAGTGCAG”, the binding signal is 3190 fluorescence intensity (a.u.).

Consider “TAGGGTATTTCAATCACACAATTTCCGGAAAGTTTTCGACCGGAGTCACCTAGTGCAG”, for which the binding signal was 12500 fluorescence intensity (a.u.).

In the case of “TGCAAAAGATAAATTGGCTATATTAATAATAATAAGGGGCCGGAGTCACCTAGTGCAG”, the binding signal was 10000 fluorescence intensity (a.u.).

Consider “TGTAAATTTGAATAAATTATGACTGTTTGGTCGTACATACCGGAGTCACCTAGTGCAG”, for which the binding signal is 37900 fluorescence intensity (a.u.).

For “GTAGTTCATCCGAAGCACGTGATTGGTTGAAAATGTTTCTCGGAGTCACCTAGTGCAG”, the binding signal is 7500 fluorescence intensity (a.u.).

On to “TTATGATTTAATTAGCGATTAATTATCCTAATTAGTGATTCGGAGTCACCTAGTGCAG”, for which the binding signal is 62200 fluorescence intensity (a.u.).

Turning to “CGGATTGATTCTTTCTTGCTCGGCATTTCGATTGGTTTGGCGGAGTCACCTAGTGCAG”, the binding signal was 47200 fluorescence intensity (a.u.).

Regarding “TATCTTGGGTAATTAGTTTTAAATTTCCCGTAATAAAATGCGGAGTCACCTAGTGCAG”, the binding signal is 5320 fluorescence intensity (a.u.).

In the case of “TTGGCTATTAAATTGACTAGATGTTTTGGACCCGACAGCTCGGAGTCACCTAGTGCAG”, the binding signal was 16700 fluorescence intensity (a.u.).

For “AAATTGATATATTTTGCTAACTATTAATGGTATTGCGACACGGAGTCACCTAGTGCAG”, the binding signal is 4750 fluorescence intensity (a.u.).

“AAACTAACCAGGATCTGGTAATTGGAACGATCCCCATTCCCGGAGTCACCTAGTGCAG”: the binding signal was 4390 fluorescence intensity (a.u.).

As to “TTGTAATTGAGGGTTACAAATTAGATTGGACATATATTTGCGGAGTCACCTAGTGCAG”, the binding signal is 39800 fluorescence intensity (a.u.).

Turning to “GTTGATGACTTTGCGAATTAAGGAGGCAGCTTTGGGTCTTCGGAGTCACCTAGTGCAG”, the binding signal is 5950 fluorescence intensity (a.u.).

“GATATTAAACTAAACTGACACGCTCGTGCAGATGAGTTTGCGGAGTCACCTAGTGCAG”: the binding signal is 7480 fluorescence intensity (a.u.).

Turning to “GTCTAATTATGTCATGAATTTGACAATGTGATGCTACAGTCGGAGTCACCTAGTGCAG”, the binding signal is 21700 fluorescence intensity (a.u.).

In the case of “TGCAGTTAACTGAAACATTCTTTCGCTATTTGCTGAAATACGGAGTCACCTAGTGCAG”, the binding signal was 6320 fluorescence intensity (a.u.).
